In paper PMC6873181 (2019):
Like-named read-outs stand apart in the source and are kept apart here. Each block holds one binder with its values, some of them ahead of it.

Assays:
human IGF-1 receptor [1] = target: T1, human IGF-1 receptor (human, UniProt P08069 31-1367)
[2] = target: human insulin receptor isoform A (human, UniProt P06213-2)
human IGF-1 receptor [3] = target: T1, human IGF-1 receptor; test: series €
human IGF-1 receptor [4] = target: T1, human IGF-1 receptor; test: series ^
human IGF-1 receptor [5] = target: T1, human IGF-1 receptor; test: series #
human IGF-1 receptor [6] = target: T1, human IGF-1 receptor; test: series $
human IGF-1 receptor [7] = target: T1, human IGF-1 receptor; test: series "

- Kd (human IGF-1 receptor [3]): 0.25 nM
- Kd (human IGF-1 receptor [4]): 0.24 nM
- Kd (human IGF-1 receptor [5]): 0.11 nM
- Kd (human IGF-1 receptor [6]): 0.24 nM
- Kd [2]: 24 nM
- Kd (human IGF-1 receptor [7]): 0.19 nM
B2: human insulin-like growth factor 1 (ligand)
chain: not shown
modifications: three intramolecular disulfides; N-terminal Gly(-1) left by TEV cleavage is included (mature number + 48 = entry number)

- Kd (human IGF-1 receptor [1]): 0.23 nM
- Kd [2]: 11.2 nM
B4: Val-54–IGF-1 (ligand)
chain: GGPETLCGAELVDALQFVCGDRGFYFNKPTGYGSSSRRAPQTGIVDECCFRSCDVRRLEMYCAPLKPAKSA
modifications: three intramolecular disulfides; N-terminal Gly(-1) included

- Kd (human IGF-1 receptor [1]): 0.2 nM
- Kd [2]: 8.1 nM
B5: Thr-51–IGF-1 (ligand)
chain: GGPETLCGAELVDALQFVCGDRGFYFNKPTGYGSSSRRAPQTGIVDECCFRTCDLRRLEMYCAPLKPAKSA
modifications: three intramolecular disulfides; N-terminal Gly(-1) included

Further lines, the binder ahead of its results:

B1: His-54–IGF-1 (ligand)
chain: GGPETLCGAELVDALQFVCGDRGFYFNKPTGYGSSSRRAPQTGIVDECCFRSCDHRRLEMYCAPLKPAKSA
modifications: three intramolecular disulfides; N-terminal Gly(-1) included
- Kd (human IGF-1 receptor [1]): 0.38 nM
- Kd [2]: 12.2 nM

B3: Asp-58–IGF-1 (ligand)
chain: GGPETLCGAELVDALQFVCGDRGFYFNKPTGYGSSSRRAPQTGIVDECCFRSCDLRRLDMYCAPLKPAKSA
modifications: three intramolecular disulfides; N-terminal Gly(-1) included
- Kd (human IGF-1 receptor [1]): 0.8 nM
- Kd [2]: 24.1 nM

B6: His-51–IGF-1 (ligand)
chain: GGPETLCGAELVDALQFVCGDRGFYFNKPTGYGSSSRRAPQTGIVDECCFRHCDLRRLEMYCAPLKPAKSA
modifications: three intramolecular disulfides; N-terminal Gly(-1) included
- Kd (human IGF-1 receptor [1]): 0.22 nM
- Kd [2]: 38.7 nM

B7: His-58–IGF-1 (ligand)
chain: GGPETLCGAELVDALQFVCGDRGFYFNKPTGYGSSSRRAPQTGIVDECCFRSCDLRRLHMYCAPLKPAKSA
modifications: three intramolecular disulfides; N-terminal Gly(-1) included
- Kd (human IGF-1 receptor [1]): 3.3 nM
- Kd [2]: 91 nM
